# Measurements: the supplement of paper PMC3334620
# Over roughly 33,000 sequences, “E-score (-0.5 to 0.5)” has its median near -0.013; the highest 2% begin near 0.3. The list shows a part of the results.
# Target: T1, Msn1 (UniProt P22148)
# T1 sequence: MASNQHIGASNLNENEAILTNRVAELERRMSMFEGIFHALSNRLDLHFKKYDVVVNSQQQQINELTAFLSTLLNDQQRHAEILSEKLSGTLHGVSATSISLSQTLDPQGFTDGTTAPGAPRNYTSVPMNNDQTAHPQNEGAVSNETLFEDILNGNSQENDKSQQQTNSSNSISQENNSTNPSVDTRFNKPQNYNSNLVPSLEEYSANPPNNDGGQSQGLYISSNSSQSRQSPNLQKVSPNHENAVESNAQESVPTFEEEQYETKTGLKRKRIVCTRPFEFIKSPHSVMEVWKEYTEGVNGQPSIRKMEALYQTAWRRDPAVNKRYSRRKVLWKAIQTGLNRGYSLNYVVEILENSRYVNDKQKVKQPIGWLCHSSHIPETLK
# Assay: PBM E-score (8-mer binding enrichment) (E-score (-0.5 to 0.5)); higher = stronger / more preferred TF binding; most listed sequences are background and not binding sites
# Settings: protein concentration: 200 nM; construct: GST-full length
# Method in brief: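 For each ungapped eight-base word taken together with its reverse complement, the Universal PBM Analysis Suite assigned an E-score. Binding data came from GST-tagged yeast transcription factors, applied at about 100-200 nM, on universal all-10-mer Agilent arrays made double-stranded by primer extension. Fluorescent anti-GST marked bound protein, and scans were normalised with masliner.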
row,Sequence,PBM E-score
1,CAGAGTCA,-0.127
2,TATTCCCA,0.0539
3,AACTACGG,-0.062
4,CGATCTTC,-0.0892
5,CCCCGTTA,-0.175
6,CAGCCCAG,-0.141
7,AGGAGGTC,-0.244
8,AACGCTCT,-0.156
9,CTTACAAG,0.043
10,AAATTTGA,0.19
11,GTACTGAC,-0.0285
12,GCGATTCC,-0.175
13,ACATACCT,0.121
14,CTGATACC,0.0072
15,CGGCGCTC,-0.0454
16,TCGCGTAA,0.0414
17,AGAAATCG,0.0314
18,GACTCATA,-0.0448
19,AGTCTCGA,0.0272
20,CTTCTCCC,-0.335
21,GTCCAGCA,0.162
22,CGGTGCTC,-0.124
23,ATAATACG,0.171
24,ACATACTG,0.0194
25,CACTCACG,-0.115

row,Sequence,PBM E-score
1,CAGGCCCG,-0.157
2,AACGGAAA,0.234
3,CCTAATCG,0.135
4,CTTTTGAA,0.0301
5,CTTGGAGA,-0.00816
6,CGCGAAAA,0.191
7,AGTTAAGC,-0.0654
8,ACTAACAC,0.0501
9,AAGTCTCA,0.13
10,AACGCATC,-0.105
11,CTAATGAA,0.107
12,AAAGATAG,-0.095
13,CTGGTCAA,-0.0575
14,CTAGACCA,-0.0818
15,AAGCGGCC,-0.123
16,CGGCCTGA,-0.216
17,CCGTACCG,-0.217
18,ATTTAGAA,0.208
19,ATATTATA,0.0943
20,ATACACCG,0.0396
21,ACGGAAGA,0.0866
22,CCGGTCTA,-0.229
23,AACCATTA,0.026
24,AGGAGCTC,-0.149
25,AGACCATC,-0.216

row,Sequence,PBM E-score
1,GAGGATGA,-0.243
2,CAGGTCTA,0.103
3,CACTCCTC,-0.234
4,AGCTCCGG,-0.0221
5,CTACGACC,-0.119
6,GACAAAGA,0.404
7,GGCACAAA,-0.113
8,CAGTGTAA,0.118
9,GGACCCAC,-0.0704
10,CACGAGCG,-0.228
11,TAAGACCA,-0.13
12,GGTCTAAA,-0.0883
13,CTCCACCA,-0.256
14,ACATACGG,0.182
15,ACTTTCTA,0.0612
16,GAAACAAC,-0.0343
17,CGAGCTGC,-0.135
18,GGACCAGA,-0.0855
19,GGGGGCTA,-0.406
20,AGAACTGG,-0.123
21,AACGACCA,0.0221
22,AATACTGA,-0.0611
23,AATGGCAT,0.171
24,GGAGGACA,0.4
25,ATGCTTCA,-0.133

row,Sequence,PBM E-score
1,TACAGGGA,-0.145
2,AAGCGACC,0.0492
3,CGTCGGAC,0.141
4,CAGCTTAC,0.0355
5,AAGTCCAA,0.275
6,ATCGTACC,-0.189
7,GGTAGGCA,-0.105
8,AATTTCCA,0.188
9,CACGCAAA,-0.119
10,GGGACTAA,0.196
11,AAAGGTGC,-0.0567
12,AGCTGCTC,-0.142
13,CGAGTTGA,0.0114
14,GCACGGAA,0.0357
15,GCGCATCA,-0.0995
16,AGGTAGAA,0.0304
17,AAAAGGGC,-0.0761
18,CGTGCTGC,-0.144
19,AATAGATG,0.0765
20,GTTAGTTA,0.201
21,GCCGAGCC,-0.0652
22,ACACTCGA,0.0471
23,CACTGTCC,0.144
24,GTACTTTA,0.099
25,CCCAGCCG,-0.258

row,Sequence,PBM E-score
1,AACTGATA,0.121
2,CTGCAACC,-0.16
3,CTCTCCGC,-0.0603
4,CATTTGAA,0.0686
5,GGACCTTA,-0.0966
6,CGTACTAG,0.151
7,CCCTAGGC,-0.139
8,TAGTGAAA,-0.0432
9,AGAGGCGG,-0.22
10,ATGACCGA,-0.047
11,CTACCCGA,-0.0469
12,AAAAGTTC,0.142
13,GGTACCAA,0.0165
14,ATTTTCTA,0.279
15,AAACTCTG,0.253
16,CGGGCACC,-0.217
17,CCCTTGCG,-0.22
18,TATACCCA,-0.089
19,ATGCGTAA,0.039
20,CGCAAGTC,-0.0106
21,AGTGTATC,0.0379
22,AGGGTCGG,-0.0831
23,CGGGTATA,0.181
24,AGAGCACT,-0.0658
25,CATAAGGG,-0.127

row,Sequence,PBM E-score
1,CCGCTGGC,-0.164
2,GAAACACC,-0.05
3,AGCCTATA,0.0926
4,GCCCACTA,-0.101
5,AGTCCCCG,-0.0625
6,AGTGAGAT,-0.092
7,AATTGATC,-0.0771
8,GGATCTAC,-0.126
9,ATACAAGA,0.0344
10,AACTGACC,0.0313
11,CGATGTAA,-0.00414
12,CTCCATCC,-0.246
13,AACAACCA,0.19
14,GGTATGGA,0.0803
15,CATCACGG,-0.0528
16,ACGCGTAG,0.052
17,GACTAGGC,-0.0873
18,CTAAGCAC,0.00334
19,CCCAATGA,-0.113
20,AAGGTGCT,0.00429
21,TCGAAAGA,0.048
22,CTCCCTTA,-0.0722
23,CCCATGTC,0.316
24,CGGGCCAC,-0.219
25,CCATCCTA,-0.0356

row,Sequence,PBM E-score
1,ACTAGTGA,-0.00819
2,ATTAACCC,0.156
3,TAGAATCA,-0.00648
4,AGTAGCGC,-0.0883
5,GCTTGGAC,0.22
6,GGTCGCCA,-0.287
7,GCAGCCGC,-0.211
8,CTAAATTA,0.144
9,AAAACTTG,0.138
10,GCCCAAGC,-0.135
11,CACGGGAC,0.0624
12,AATGCGAC,0.0714
13,AGTGATGA,-0.182
14,GTGAGTTA,-0.0625
15,CGCGGGAA,0.0204
16,GGAGATCA,-0.0623
17,CAACTGAA,0.00402
18,ATGGGGCA,-0.119
19,CCGCCGAA,0.0787
20,ACCCAGGC,-0.0539
21,CTCGCAAG,-0.0378
22,AGTATTAA,0.175
